Test results as given in patent publication US20150250167A1, “COMPOSITION FOR NOXIOUS ORGANISMS-CONTROLLING AGENT AND METHOD FOR USING THE SAME” (priority 2001, published 2015).
Where two headings read alike, the source gives them in different places.

Key:
Cutworm = experiment: Test for the effect against cutworm on beet, drench, number of injured hills per 100 hills; assay type: in vivo; conditions: 15 g ai/10a
[1] = test system: Rice Water Weevil (Lissorhoptrus oryzophilus); experiment: Control of rice water weevil on paddyfield rice by nursery box application, extent of injury; assay type: in vivo; conditions: 0.5 g ai/Box, single agent
[2] = test system: Resistant Strain of Two-Spotted Spider Mite; conditions: 100 ppm, single agent, 2 days after spraying
[3] = test system: Rice Leafroller (Cnaphalocrosis medinalis); experiment: Control of rice leafroller on paddyfield rice by nursery box application, number of injured leaves; assay type: in vivo; conditions: 0.5 g ai/Box, single agent
[4] = test system: Southern Root-Knot Nematode (Meloidogyne incognita); experiment: Test for the effect on southern root-knot nematode, soil blending with granular preparation; assay type: in vivo; conditions: 300 g ai/10a, single agent, 60 days after treatment
[5] = test system: Citrus Yellow Thrips (Frankliniella occidentalis); experiment: Control of citrus yellow thrips on egg plant by combined use with natural enemy pesticide, number of thrips; assay type: in vivo; conditions: 100 ppm, spray
[6] = test system: Green Peach Aphid (Myzus persicae); experiment: Insecticidal test on green peach aphid, spraying of Chinese cabbage, control value; assay type: in vivo; conditions: single agent, 6 days after spraying; for Control degree (%): 100 ppm
[7] = test system: Diamondback Moth (Plutella xyloxtella); experiment: Control of diamondback moth on cabbage by soil treatment, number of parasitic insects; assay type: in vivo; conditions: 5 mg ai/hill, 21 days after transplanting
[8] = test system: Small Brown Planthopper (Laodelphax striatellus); experiment: Control of small brown planthopper on paddyfield rice by nursery box application, number of parasitic insects; assay type: in vivo; conditions: 0.5 g ai/Box, single agent
Aphid = experiment: Control of aphid on cabbage by soil treatment, number of parasitic insects; assay type: in vivo; conditions: 5 mg ai/hill, 21 days after transplanting
[9] = test system: Brown Rice Planthopper (Nilaparvata lugens); experiment: Insecticidal test on brown rice planthopper, rice seedling dipping; assay type: in vivo; conditions: 100 ppm, single agent; for Death rate (%) After 1 days: after 1 day
[10] = test system: Smaller Tea Tortrix (Adoxophyes orana fosciota); experiment: Insecticidal test on smaller tea tortrix, tea leaf dipping; assay type: in vivo; conditions: 4th instar larvae, 25° C.; for Death rate (%) After 4 days / Death rate (%) After 7 days: single agent 0.3 ppm; for pest or weed control at 0.1 ppm: Adoxophyes orana, foliar, single agent 0.1 ppm
rice plant = conditions: 10.0 g ai/10a; four weeks after the treatment
Rice Blast = assay type: in vivo; conditions: 10.0 g ai/10a; submerged application
[11] = test system: Bulrush (Scirpus juncoides Roxb.); experiment: Herbicidal effect on bulrush by submerged application to main paddyfield; assay type: in vivo; design: key: 0 means “no effect”; 10 means “complete withering”; conditions: 10.0 g ai/10a; four weeks after the treatment
[12] = test system: Rice Leafroller (Cnaphalocrocis medinalis); experiment: Control of rice leafroller by submerged application to main paddyfield, percentage of injured leaves; assay type: in vivo; conditions: 10.0 g ai/10a
[13] = test system: Barnyard Grass (Echinochloa crus-Galli); experiment: Herbicidal effect on barnyard grass by submerged application to main paddyfield; assay type: in vivo; design: key: 0 means “no effect”; 10 means “complete withering”; conditions: 10.0 g ai/10a; four weeks after the treatment

## Cc1cc(OC(F)F)ccc1NC(=O)c1cccc(I)c1C(=O)NC(C)C [Compound 45]
Cutworm
  Number of injured hills per 100 hills, After 60 days: 0
  Number of injured hills per 100 hills, After 90 days: 9
  Number of injured hills per 100 hills, After 120 days: 23
[1]
  Extent of injury After 21 days: 38.8
[2]
  Death rate (%): 0%
[3]
  Percentage of injured leaves (%) After 50 days: 0.13%
[4]
  Number of nematodes per 25 g of soil sample: 30
[5]
  Number of parasitic insects per 20 leaves, After 60 days: 18
  Number of parasitic insects per 20 leaves, After 90 days: 29
  Number of parasitic insects per 20 leaves, After 120 days: 59
[6]
  Control degree (%): 0%
[7]; plant foot treatment
  Number of parasitic insects per 30 hills, Diamondback moth: 4
[7]; pre-transplanting treatment
  Number of parasitic insects per 30 hills, Diamondback moth: 1
[7]; pricking-in hole treatment
  Number of parasitic insects per 30 hills, Diamondback moth: 5
[7]; soil incorporation
  Number of parasitic insects per 30 hills, Diamondback moth: 2
[8]
  Number of parasitic planthoppers per 30 hills After 40 days: 353
  Number of parasitic planthoppers per 30 hills After 60 days: 395
Aphid; plant foot treatment
  Number of parasitic insects per 30 hills, Aphid: 489
Aphid; pre-transplanting treatment
  Number of parasitic insects per 30 hills, Aphid: 472
Aphid; pricking-in hole treatment
  Number of parasitic insects per 30 hills, Aphid: 465
Aphid; soil incorporation
  Number of parasitic insects per 30 hills, Aphid: 472
[9]
  Death rate (%) After 1 days: 0%
  Death rate (%) After 5 days: 0%
[10]
  Death rate (%) After 4 days: 0%
  Death rate (%) After 7 days: 25%

## Cc1cc(OCC(F)(F)C(F)F)ccc1NC(=O)c1cccc(I)c1C(=O)NC(C)C [Compound 46]
Cutworm
  Number of injured hills per 100 hills, After 60 days: 0
  Number of injured hills per 100 hills, After 90 days: 8
  Number of injured hills per 100 hills, After 120 days: 20
[1]
  Extent of injury After 21 days: 42.7
[2]
  Death rate (%): 0%
[3]
  Percentage of injured leaves (%) After 50 days: 0.18%
[4]
  Number of nematodes per 25 g of soil sample: 36
[5]
  Number of parasitic insects per 20 leaves, After 60 days: 20
  Number of parasitic insects per 20 leaves, After 90 days: 34
  Number of parasitic insects per 20 leaves, After 120 days: 57
[6]
  Control degree (%): 0%
[7]; plant foot treatment
  Number of parasitic insects per 30 hills, Diamondback moth: 2
[7]; pre-transplanting treatment
  Number of parasitic insects per 30 hills, Diamondback moth: 1
[7]; pricking-in hole treatment
  Number of parasitic insects per 30 hills, Diamondback moth: 3
[7]; soil incorporation
  Number of parasitic insects per 30 hills, Diamondback moth: 1
[8]
  Number of parasitic planthoppers per 30 hills After 40 days: 349
  Number of parasitic planthoppers per 30 hills After 60 days: 387
Aphid; plant foot treatment
  Number of parasitic insects per 30 hills, Aphid: 469
Aphid; pre-transplanting treatment
  Number of parasitic insects per 30 hills, Aphid: 479
Aphid; pricking-in hole treatment
  Number of parasitic insects per 30 hills, Aphid: 447
Aphid; soil incorporation
  Number of parasitic insects per 30 hills, Aphid: 505
[9]
  Death rate (%) After 1 days: 0%
  Death rate (%) After 5 days: 0%
[10]
  Death rate (%) After 4 days: 0%
  Death rate (%) After 7 days: 15%

## Cc1cc(OC(F)(F)C(F)C(F)(F)F)ccc1NC(=O)c1cccc(I)c1C(=O)NC(C)C (stereo not shown) [Compound 47]
Cutworm
  Number of injured hills per 100 hills, After 60 days: 0
  Number of injured hills per 100 hills, After 90 days: 9
  Number of injured hills per 100 hills, After 120 days: 21
[1]
  Extent of injury After 21 days: 40.9
[2]
  Death rate (%): 0%
[3]
  Percentage of injured leaves (%) After 50 days: 0.11%
[4]
  Number of nematodes per 25 g of soil sample: 27
[5]
  Number of parasitic insects per 20 leaves, After 60 days: 21
  Number of parasitic insects per 20 leaves, After 90 days: 27
  Number of parasitic insects per 20 leaves, After 120 days: 52
[6]
  Control degree (%): 0%
[7]; plant foot treatment
  Number of parasitic insects per 30 hills, Diamondback moth: 2
[7]; pre-transplanting treatment
  Number of parasitic insects per 30 hills, Diamondback moth: 4
[7]; pricking-in hole treatment
  Number of parasitic insects per 30 hills, Diamondback moth: 1
[7]; soil incorporation
  Number of parasitic insects per 30 hills, Diamondback moth: 3
[8]
  Number of parasitic planthoppers per 30 hills After 40 days: 328
  Number of parasitic planthoppers per 30 hills After 60 days: 365
Aphid; plant foot treatment
  Number of parasitic insects per 30 hills, Aphid: 511
Aphid; pre-transplanting treatment
  Number of parasitic insects per 30 hills, Aphid: 452
Aphid; pricking-in hole treatment
  Number of parasitic insects per 30 hills, Aphid: 477
Aphid; soil incorporation
  Number of parasitic insects per 30 hills, Aphid: 438
[9]
  Death rate (%) After 1 days: 0%
  Death rate (%) After 5 days: 0%
[10]
  Death rate (%) After 4 days: 0%
  Death rate (%) After 7 days: 30%

## Cc1cc(OC(F)(F)F)ccc1NC(=O)c1cccc(F)c1C(=O)NC(C)C [Compound 54]
Cutworm
  Number of injured hills per 100 hills, After 60 days: 0
  Number of injured hills per 100 hills, After 90 days: 8
  Number of injured hills per 100 hills, After 120 days: 19
[1]
  Extent of injury After 21 days: 41.7
[2]
  Death rate (%): 0%
[3]
  Percentage of injured leaves (%) After 50 days: 0.25%
[4]
  Number of nematodes per 25 g of soil sample: 32
[5]
  Number of parasitic insects per 20 leaves, After 60 days: 18
  Number of parasitic insects per 20 leaves, After 90 days: 25
  Number of parasitic insects per 20 leaves, After 120 days: 61
[6]
  Control degree (%): 0%
[7]; plant foot treatment
  Number of parasitic insects per 30 hills, Diamondback moth: 2
[7]; pre-transplanting treatment
  Number of parasitic insects per 30 hills, Diamondback moth: 1
[7]; pricking-in hole treatment
  Number of parasitic insects per 30 hills, Diamondback moth: 3
[7]; soil incorporation
  Number of parasitic insects per 30 hills, Diamondback moth: 1
[8]
  Number of parasitic planthoppers per 30 hills After 40 days: 328
  Number of parasitic planthoppers per 30 hills After 60 days: 334
Aphid; plant foot treatment
  Number of parasitic insects per 30 hills, Aphid: 463
Aphid; pre-transplanting treatment
  Number of parasitic insects per 30 hills, Aphid: 487
Aphid; pricking-in hole treatment
  Number of parasitic insects per 30 hills, Aphid: 499
Aphid; soil incorporation
  Number of parasitic insects per 30 hills, Aphid: 478
[9]
  Death rate (%) After 1 days: 0%
  Death rate (%) After 5 days: 0%
[10]
  Death rate (%) After 4 days: 0%
  Death rate (%) After 7 days: 25%

## CSCC(C)(C)NC(=O)c1c(I)cccc1C(=O)Nc1ccc(C(F)(C(F)(F)F)C(F)(F)F)cc1C [Compound 129, N^2-(1,1-dimethyl-2-methylthioethyl)-3-iodo-N^1-{2-methyl-4-[1,2,2,2-tetrafluoro-1-(trifluoromethyl)ethyl]phenyl}-phthalamide]
Cutworm
  Number of injured hills per 100 hills, After 60 days: 0
  Number of injured hills per 100 hills, After 90 days: 10
  Number of injured hills per 100 hills, After 120 days: 22
[1]
  Extent of injury After 21 days: 40.3
[2]
  Death rate (%): 5%
Rice plant
  Phytotoxicity rice: 0
[3]
  Percentage of injured leaves (%) After 50 days: 0.13%
Rice Blast
  Areal rate of disease spot (%) After 60 days: 8.1%
[4]
  Number of nematodes per 25 g of soil sample: 45
[5]
  Number of parasitic insects per 20 leaves, After 60 days: 19
  Number of parasitic insects per 20 leaves, After 90 days: 29
  Number of parasitic insects per 20 leaves, After 120 days: 51
[6]; Myzus persicae, 144 h, read-out: Control degree (%)
  pest or weed control at 100 ppm: 5%
[7]; plant foot treatment
  Number of parasitic insects per 30 hills, Diamondback moth: 1
[7]; pre-transplanting treatment
  Number of parasitic insects per 30 hills, Diamondback moth: 2
[7]; pricking-in hole treatment
  Number of parasitic insects per 30 hills, Diamondback moth: 3
[7]; soil incorporation
  Number of parasitic insects per 30 hills, Diamondback moth: 2
[8]
  Number of parasitic planthoppers per 30 hills After 40 days: 323
  Number of parasitic planthoppers per 30 hills After 60 days: 390
Aphid; plant foot treatment
  Number of parasitic insects per 30 hills, Aphid: 481
Aphid; pre-transplanting treatment
  Number of parasitic insects per 30 hills, Aphid: 402
Aphid; pricking-in hole treatment
  Number of parasitic insects per 30 hills, Aphid: 397
Aphid; soil incorporation
  Number of parasitic insects per 30 hills, Aphid: 455
[11]
  Herbicidal effect fulrush: 0
[9]
  Death rate (%) After 1 days: 0%
  Death rate (%) After 5 days: 0%
[10]; 96 h, read-out: Death rate (%) After 4 days
  pest or weed control at 0.1 ppm: 10%
[10]; 168 h, read-out: Death rate (%) After 7 days
  pest or weed control at 0.1 ppm: 30%
[12]
  Percentage of injured leaves (%) After 50 days: 0.15%
[13]
  Herbicidal effect barnyard grass: 0
